Data on eight molecules can be found in the supplement of paper PMC10115384.

The chains are these.
B1: ADI-67741 (protein)
chain 1: EVQLVESGGGLVRPGGSLRLSCAASGITFTNTWMNWVRQAPGKGLEWVGRIKSKTHGGTTDYGAPVKGRFTISRDDSKNTLFLQLNSLKTEDTAVYYCTTLSGSSQYSSGWYYYFYYMDVWGKGTTVTVSS
chain 2: EIVLTQSPATLSLSPGERATLSCGASQSVSSSYLAWYQQKPGLAPRLLIYDTSTRATGIPDRFSGSGSGTDFTLTISRLEPEDCAVYYCQHYGSSPPYTFGQGTKLEIK
B2: ADI-67814 (protein)
chain 1: QVQLVESGGGVVQPGRSLRLSCAASGFTFSRFGMHWVRQAPGKGLEWVAVISYDGNNKYYADSVKGRFTISRDTSKTTLYLQMNSLRAEDTAVYYCARDLWYYDRSGLLRHDAFDVWGQGTMVTVSS
chain 2: DIQMTQSPSTLSASIGDRVNITCRASQSISSWLAWYQQKPGKAPKLLIYEASNLETGVPSRFSGRGSGTEFTLAISGLQPDDFATYYCQQYNSYLYSFGQGTKLEIK
B3: ADI-67804 (protein)
chain 1: QITLKESGPTLVKPTQTLTLTCTFSGFSLSTTGEGVGWIRQPPGKALEWLALIYWDDDKRYSPSLKSRLTITKDTSKNQVVLTLTNMDFVDTATYSCAHISCCTTASYNPHFDYWGQGTLVTVSS
chain 2: QSVLTQPPSVSEAPRQRVTISCSGSSSNIGHNAVNWYQHLPGKAPKLVIYYDDLLPSGVSDRFSASKSGTSASLAISGLQSEDEADYYCATWDDSLNVPVFGGGTKLTVL
B4: ADI-67748 (protein)
chain 1: QVQLQESGPGLVKPSQTLSLTCTVSGDSIYSGTYYWNWIRQHPGQGLEWIGYILYSGSTYFNPSLKSRVTMSIDTSKKQFSLRLSSVTAADTAVYYCARSPVIYGTNSGFDYWGQGTLVTVSS
chain 2: ETTLTQSPAFLSATPGDKVNISCKASQDIDAAMNWYQQKPGEAAIFIIQEATTLVPGIPPRFSGSGYGTDFTLTINNIESEDAAYYFCLQHDNFPYTFGQGTKVEIK
B5: ADI-67744 (protein)
chain 1: EVQLVESGGGLVQPGKSLTLSCAASGFTFEDYAMYWVRQAPGKGPEWVSGISWHSGSIDYADSVKGRFTISRDNAKNSLYLQMNSLRAEDTALYHCAKGKAAGHSYYYGMDVWGQGTTVTVSS
chain 2: DIQMTQSPSSLSASVGDRVTITCRASQSISGFLNWYQQKPGRTPEVLIYAASSLQSGVPSRFSGSESGTDFTLTISSLQPEDFATYYCQQSYVTPWTFGQGTKVEIK
B6: ADI-67722 (protein)
chain 1: QVQLQQWGAGLLRPSETLSLTCAVEGESFNSYYWTWIRQPPGKRLEWIAEIQVGEDITYNPSLKSRVSMSFDTSKKQFSLRLTSVTAADTAIYYCARGVQIPEYCSMNNCPVSDHHYFYMDVWGKGTTVTVSS
chain 2: EIVLTQSPGTLSLSPGESATLSCRASQTISSYYLAWYQQKPGQAPRLLIYGASSRATGIPDRFNGSGSGTDFTLTITRLEPEDFAVYHCQQYGGSRPWTFGQGTKVEIK
B7: ADI-67747 (protein)
chain 1: QVQLQESGPGLVKPSETLSLTCTVSGASISRYYWSWIRQTPGKGLEWMGCIHDSGSTNYNPSLESRVTISRDTPKNQFSLNLSSVTASDTAVYYCARRGLGYCSTTRCYSAFDIWGQGTMVTVSS
chain 2: DIQMTQSPSSLSASVGDRVTITCRASQSINNYLNWYQQKPGKVPNLLIYGASSLQSGVPSRFSGSGSGTDFTLTINSLQPEDFASYYCQQSYSPPYTFGQGTKLEIK
B8: ADI-67690 (protein)
chain 1: EVQLVESGGGLVQPGRSLRLSCAAFGFTFDDYAMHWVRQAPGKGLEWVSGISWNSGTIGYVDSVQGRFFISRDNAKNSLYLQMNNLRPEDTAFYYCVKEEGSEKYYYDSSGQGYFDLWGRGTLVTVSS
chain 2: QSVLTQPPSASGTPGQRVTISCSGNSSNIGSNPVNWYQQLPGTAPKLLIYRNNQRPSGVPDRFSGSKSGTSASLAISGLQSEDEADYYCTTWDGSLHGHWVFGGGTKLTVL

Human monoclonal antibodies (heavy:light variable regions, translated from the printed DNA). IC50 against SARS-CoV-2 spike pseudoviruses, on VSV particles in 293T-ACE2 cells (24 h) or MLV particles in HeLa-ACE2 cells (72 h); lower = stronger; >1.0 µg/ml as printed. No active / inactive call per row; the paper counts an IC50 of 0.4 µg/ml or less on any variant as neutralizing. Only 98 of the paper's 459 antibodies have neutralization values; the two systems are not on one scale.

One assay concerns the target SARS-CoV-2 Beta spike pseudovirus. Nature of the assay: pseudovirus neutralization IC50; higher = weaker neutralization. To be noted: system: VSV particle, 293T-ACE2 cells. The protocol:
(§1)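 Single-round reporter pseudovirus mixed with dilutions of yeast-made human IgG and put on ACE2-bearing cells; IC50 from the dose curve.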
In the case of B1, the “pseudovirus neutralization IC50” value is > 1 µg/mL.

On to B2, for which the “pseudovirus neutralization IC50” value was > 1 µg/mL.

Take B3: the “pseudovirus neutralization IC50” value was > 1 µg/mL.

For the molecule B4, the “pseudovirus neutralization IC50” value was found to be 0.0322 µg/mL.

Take B5: the “pseudovirus neutralization IC50” value worked out at 0.0272 µg/mL.

For the molecule B6, the “pseudovirus neutralization IC50” value came to 0.255 µg/mL.

Turning to B7, the “pseudovirus neutralization IC50” value is > 1 µg/mL.

As for B8, the “pseudovirus neutralization IC50” value is > 1 µg/mL.

The next assay addresses SARS-CoV-2 Delta spike pseudovirus. The assay is described as above. Conditions: system: VSV particle, 293T-ACE2 cells. The protocol:
as §1
For B1, the “pseudovirus neutralization IC50” value amounted to 0.956 µg/mL.

As to B2, the “pseudovirus neutralization IC50” value is > 1 µg/mL.

Consider B3, for which the “pseudovirus neutralization IC50” value is > 1 µg/mL.

With B4, the “pseudovirus neutralization IC50” value came to 0.0431 µg/mL.

As to B5, the “pseudovirus neutralization IC50” value came to 0.0102 µg/mL.

Regarding B6, the “pseudovirus neutralization IC50” value was 0.0122 µg/mL.

Regarding B7, the “pseudovirus neutralization IC50” value was found to be 0.522 µg/mL.

In the case of B8, the “pseudovirus neutralization IC50” value is > 1 µg/mL.

A further assay concerns the target SARS-CoV-2 index (Wuhan-Hu-1) spike pseudovirus. The description is as above. Conditions: system: VSV particle, 293T-ACE2 cells. As for the experimental part: as §1
Regarding B1, the “pseudovirus neutralization IC50” value was > 1 µg/mL.

As for B2, the “pseudovirus neutralization IC50” value is 0.464 µg/mL.

For the molecule B3, the “pseudovirus neutralization IC50” value is > 1 µg/mL.

Take B4: the “pseudovirus neutralization IC50” value turned out to be 0.0082 µg/mL.

Take B5: the “pseudovirus neutralization IC50” value is 0.0154 µg/mL.

As to B6, the “pseudovirus neutralization IC50” value worked out at 0.0282 µg/mL.

With B7, the “pseudovirus neutralization IC50” value amounted to 0.874 µg/mL.

Another assay deals with SARS-CoV-2 Omicron BA.1 spike pseudovirus. The description is as above. Conditions: system: MLV particle, HeLa-ACE2 cells. The protocol: as §1
B2: the “pseudovirus neutralization IC50” value was determined as 3.14 µg/mL.

For the molecule B4, the “pseudovirus neutralization IC50” value was determined as 4.41 µg/mL.

For B5, the “pseudovirus neutralization IC50” value was determined as 0.0137 µg/mL.

For the next assay, the target named is SARS-CoV-2 index (Wuhan-Hu-1) spike pseudovirus. The description is as above. To be noted: system: MLV particle, HeLa-ACE2 cells. The protocol:
as §1
Regarding B2, the “pseudovirus neutralization IC50” value was found to be 0.12 µg/mL.

Turning to B4, the “pseudovirus neutralization IC50” value was found to be 0.00379 µg/mL.

B5: the “pseudovirus neutralization IC50” value came out at 0.00748 µg/mL.

Take B6: the “pseudovirus neutralization IC50” value was determined as 0.00736 µg/mL.
